Test results from the antibiotic and cytotoxicity screens of Wong et al. (2023).
The list shows a part of the results.

What was measured:
HSkMC = human skeletal muscle cells; assay: cytotoxicity call (relative viability < 0.9); details: 10 µM
HepG2 = assay: cytotoxicity call (relative viability < 0.9); details: 10 µM
S. aureus RN4220 = assay: growth inhibition call (relative growth <= 0.2); details: 50 µM

SMILES | cytotoxicity call (HSkMC) | cytotoxicity call (HepG2) | growth inhibition call (S. aureus RN4220)
COCC#Cc1cnc2c(c1)C(=O)N([C@@H](C)CO)C[C@@H](C)[C@H](CN(C)C(=O)c1cnccn1)O2 | inactive | inactive | inactive
O=C(C[C@@H]1C[C@H]2c3cc(NC(=O)C4CCOCC4)ccc3O[C@H]2[C@@H](CO)O1)NCCN1CCCCC1 | inactive | inactive | inactive
C[C@H](CO)N1C[C@H](C)[C@@H](CN(C)S(C)(=O)=O)Oc2ccc(NS(=O)(=O)c3cccs3)cc2CC1=O | inactive | inactive | inactive
COC(=O)[C@@H](Cc1ccc(-n2cc(-c3ccc(C(=O)NO)s3)nn2)cc1)N1CC2=C[C@H](C3CC3)n3c(=O)n(C)c(=O)n3[C@@H]2[C@H]1[C@H](O)Cc1ccccc1 | inactive | inactive | inactive
C[C@@H]1CN([C@@H](C)CO)C(=O)c2cc(NS(=O)(=O)c3cn(C)cn3)ccc2O[C@@H](C)CCCCO[C@@H]1CN(C)S(=O)(=O)c1cccs1 | inactive | inactive | inactive
C[C@H]1CN([C@@H](C)CO)C(=O)Cc2cc(NS(=O)(=O)c3cn(C)cn3)ccc2O[C@@H]1CN(C)S(=O)(=O)c1ccc(Cl)cc1 | inactive | inactive | inactive
COc1ccc(NC(=O)Nc2ccc3c(c2)C(=O)N([C@H](C)CO)C[C@H](C)[C@@H](CN(C)C(=O)Nc2cccc4ccccc24)OCCCC[C@H](C)O3)cc1 | inactive | inactive | inactive
C[C@@H]1CN([C@H](C)CO)C(=O)c2c(c3ccccc3n2C)-c2ccccc2CO[C@H]1CN(C)Cc1ccccc1C(F)(F)F | active | active | inactive
Cc1ccc(S(=O)(=O)N(C)C[C@H]2Oc3ccc(NS(=O)(=O)c4ccc(F)cc4)cc3C(=O)N([C@H](C)CO)C[C@H]2C)cc1 | inactive | inactive | inactive
C[C@H]1CCCCO[C@H](CN(C)S(C)(=O)=O)[C@@H](C)CN([C@@H](C)CO)C(=O)c2cc(N(C)C)ccc2O1 | inactive | inactive | inactive
C[C@H](CO)N1C[C@H](C)[C@H](CN(C)S(=O)(=O)c2ccc(Cl)cc2)OCCCC[C@H](C)Oc2ccc(NC(=O)Cc3ccccc3)cc2C1=O | inactive | inactive | inactive
CC(=O)N(C)C[C@@H]1Oc2ncc(C#C[C@H](C)O)cc2C(=O)N([C@@H](C)CO)C[C@@H]1C | inactive | inactive | inactive
NC[C@H]1CC[C@H](C(=O)N2CCC(c3ccncc3)CC2)CC1 | inactive | inactive | inactive
C[C@@H]1CCCCO[C@H](CN(C)CC2CC2)[C@H](C)CN([C@@H](C)CO)C(=O)c2cc(NC(=O)Nc3cccc4ccccc34)ccc2O1 | inactive | inactive | inactive
C[C@H]1CCCCO[C@@H](CN(C)C(=O)c2ccccc2)[C@@H](C)CN([C@@H](C)CO)C(=O)c2cc(NC(=O)Nc3ccc(F)cc3)ccc2O1 | inactive | inactive | inactive
C[C@H]1CN([C@@H](C)CO)C(=O)Cc2cc(NC(=O)C3CCCCC3)ccc2O[C@H]1CN(C)Cc1ccc(-c2ccccc2)cc1 | inactive | inactive | inactive
